Assay results as given in the supplement of paper PMC3334620.
Over roughly 33,000 sequences, “E-score (-0.5 to 0.5)” has its median near -0.043; the highest 2% begin near 0.37. The list shows a part of the results.

What follows are sequences tested against T1, Upc2 (UniProt Q12151) (assay: PBM E-score (8-mer binding enrichment) (E-score (-0.5 to 0.5)); higher = stronger / more preferred TF binding; most listed sequences are background and not binding sites). Conditions: protein concentration: 200 nM; construct: GST-full length.
T1 sequence: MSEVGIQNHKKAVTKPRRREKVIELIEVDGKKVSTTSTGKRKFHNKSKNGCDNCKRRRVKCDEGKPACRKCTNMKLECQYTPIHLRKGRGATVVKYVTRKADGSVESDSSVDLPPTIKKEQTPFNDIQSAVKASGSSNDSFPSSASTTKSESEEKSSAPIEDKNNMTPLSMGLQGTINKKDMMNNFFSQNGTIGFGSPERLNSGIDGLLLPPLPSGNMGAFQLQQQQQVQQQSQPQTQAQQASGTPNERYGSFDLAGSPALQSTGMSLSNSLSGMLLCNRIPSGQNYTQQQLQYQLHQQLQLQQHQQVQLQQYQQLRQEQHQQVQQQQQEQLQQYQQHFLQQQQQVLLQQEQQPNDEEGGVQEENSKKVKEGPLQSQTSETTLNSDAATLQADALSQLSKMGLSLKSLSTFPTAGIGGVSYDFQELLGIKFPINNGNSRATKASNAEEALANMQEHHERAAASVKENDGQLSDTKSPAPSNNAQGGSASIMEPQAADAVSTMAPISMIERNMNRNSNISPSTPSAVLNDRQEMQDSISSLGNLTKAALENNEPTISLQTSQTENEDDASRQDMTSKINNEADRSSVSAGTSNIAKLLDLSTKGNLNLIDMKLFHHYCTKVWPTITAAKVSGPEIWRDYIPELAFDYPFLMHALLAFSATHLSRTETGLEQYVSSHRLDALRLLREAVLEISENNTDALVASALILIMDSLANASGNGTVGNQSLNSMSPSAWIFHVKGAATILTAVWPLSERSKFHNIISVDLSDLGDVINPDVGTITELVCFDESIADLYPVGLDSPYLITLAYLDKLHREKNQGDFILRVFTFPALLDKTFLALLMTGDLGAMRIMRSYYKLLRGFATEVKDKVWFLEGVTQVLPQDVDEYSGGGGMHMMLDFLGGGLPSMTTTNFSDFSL
Outline: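 Universal all-10-mer Agilent arrays, double-stranded by primer extension on fresh or once-stripped slides, were probed with about 100-200 nM GST-tagged yeast transcription factors made by PURExpress. Fluorescent anti-GST detected bound protein, and masliner normalised the scans. E-scores from the Universal PBM Analysis Suite were given to each ungapped eight-base word pooled with its reverse complement.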

| Sequence | PBM E-score |
| --- | --- |
| AACAGGAG | -0.196 |
| CGCGTGAC | 0.0176 |
| GTGGTACA | -0.0906 |
| CGAATAAG | 0.238 |
| CAACACGA | 0.079 |
| CAAGTCCA | -0.243 |
| AACGCAAG | -0.115 |
| CGGCCCGA | -0.0827 |
| CAACCCCC | -0.308 |
| GCCTACGA | 0.249 |
| ACCACGCC | -0.0536 |
| TCGACCGA | -0.0426 |
| GTATCGTA | 0.423 |
| CTTATAGA | 0.107 |
| TAAGTCAA | -0.0287 |
| GACAATCC | -0.137 |
| AAGCAAGA | -0.189 |
| ACCATTGA | 0.0696 |
| AATCAGTC | -0.0216 |
| CAGACCGC | -0.0953 |
| ACTATCAG | -0.196 |
| CACATTCA | -0.183 |
| CCAAAAAC | 0.0374 |
| AGATCTCG | 0.235 |
| CAATTGGA | -0.255 |

| Sequence | PBM E-score |
| --- | --- |
| ATGGTTTC | 0.0347 |
| ACCGGGCG | -0.0214 |
| ATGCTAGC | -0.0375 |
| AGTACTGA | -0.104 |
| ATTCACTG | -0.23 |
| AGCGTGCA | -0.0197 |
| CTAATGGC | -0.133 |
| CGGTGGGA | -0.0339 |
| CCCACAAC | -0.0274 |
| ATAGGCCA | 0.123 |
| AAAACTCT | -0.131 |
| CACTCGCA | 0.0657 |
| AGACGTCC | -0.155 |
| ATCTGAAA | -0.00539 |
| CCCTGTAG | -0.234 |
| CACCGGGG | -0.211 |
| GATACTGC | -0.123 |
| ACGAAACG | 0.403 |
| CACTCAAC | 0.0712 |
| GGTGGATA | -0.171 |
| TAGATAAA | 0.12 |
| CGCTCGAA | 0.0556 |
| GACAAGTA | -0.0872 |
| ACAAACCG | 0.0738 |
| AAACCACA | -0.118 |

| Sequence | PBM E-score |
| --- | --- |
| AGAGCTTC | -0.19 |
| AGGTCCTG | -0.0608 |
| CCGTTTTA | 0.118 |
| CCAATTGG | 0.0685 |
| GACTAACC | -0.118 |
| GCTGCTTA | 0.0313 |
| ACATAGTG | -0.128 |
| CAAGGGAG | -0.14 |
| AAGCCGGT | -0.131 |
| GCGGGAGC | -0.183 |
| ATCCCCAT | -0.179 |
| ATGTATGC | 0.0498 |
| CCGTACGC | 0.308 |
| ATCTAATA | 0.202 |
| CCCCATCA | -0.236 |
| CAGCTATC | -0.198 |
| ACTAGACA | -0.171 |
| CGTAGATC | 0.182 |
| TATTGTGA | 0.0151 |
| AGCTTCGC | 0.0496 |
| CGTCCTAG | -0.202 |
| AAAGACTA | 0.0661 |
| ATGCAGCG | -0.136 |
| AAAACGAC | 0.375 |
| AGAATAGG | 0.14 |

| Sequence | PBM E-score |
| --- | --- |
| AGAGGATA | -0.0298 |
| ATGATCCG | -0.0506 |
| AGTGGTAC | 0.18 |
| CCTGCCAG | -0.285 |
| ACGTTCCG | 0.169 |
| GTTCCGGA | -0.021 |
| AATCCTAT | -0.0872 |
| CCAGGTTC | -0.287 |
| CCCAATCC | -0.194 |
| CCATCAGC | -0.138 |
| GGAGACAA | -0.0252 |
| CTTTCCTC | -0.179 |
| GCGACCCA | -0.118 |
| CCCCCCGC | -0.101 |
| GGCAGGCC | -0.295 |
| GCTGTGCA | -0.0365 |
| CAAAGGTG | -0.244 |
| GGCCAGCA | -0.302 |
| ACGCGAGC | 0.262 |
| AGCTGTTG | -0.208 |
| TCGAGTAA | 0.0386 |
| AGGCGCCT | 0.0931 |
| ATGAGAAG | -0.105 |
| ACGGGGAT | 0.151 |
| AACGAATA | 0.381 |

| Sequence | PBM E-score |
| --- | --- |
| CACCCTCG | 0.0904 |
| GCAGTAGC | -0.174 |
| TTGGAAAA | -0.017 |
| AGGCAATA | -0.239 |
| CTTGGGTC | -0.286 |
| GAGGTCCA | -0.289 |
| CAAACTGG | -0.178 |
| CTAGGGAC | -0.19 |
| CAGCCATA | 0.135 |
| CACAGAAC | 0.127 |
| GTGTCTCA | -0.12 |
| AAGTCTGA | -0.255 |
| CGAGGCCG | 0.148 |
| CCACATGG | -0.229 |
| CACGTGTA | 0.22 |
| GACATCTA | 0.0629 |
| AGGAGAAG | -0.146 |
| CTTGTCAA | -0.133 |
| AATAATAT | 0.0635 |
| AGCCATTC | -0.0765 |
| AGTACGAC | 0.409 |
| CCATAGGA | -0.163 |
| TCCAGGAA | -0.0505 |
| AAATTCAG | 0.172 |
| CACCCAAA | 0.08 |

| Sequence | PBM E-score |
| --- | --- |
| ACCAATAA | -0.2 |
| CTGCGTAA | 0.167 |
| CTTTTGCA | -0.012 |
| TCCCCTAA | -0.151 |
| TCGCAAGA | -0.0178 |
| CTTGACGC | -0.165 |
| GTCGGAGA | 0.00706 |
| ACTGCTGC | -0.189 |
| ATCCAGAG | -0.00777 |
| GTGCAAAA | -0.0818 |
| AGTCAGCG | -0.274 |
| GAACCACC | 0.00279 |
| CATATCAA | -0.0224 |
| GGCCCCAA | -0.103 |
| CGCTAGGC | -0.275 |
| AAGATAGA | -0.167 |
| CAGGTATA | 0.12 |
| ACTTGCGG | -0.0893 |
| ACCAGCTG | -0.00241 |
| TACGTACA | 0.341 |
| AAGTCAGG | -0.0891 |
| CCTTATCG | 0.0525 |
| GCTTCGCC | -0.195 |
| AGGTACGC | 0.163 |
| AGCCGAAT | 0.00349 |

| Sequence | PBM E-score |
| --- | --- |
| AACGCTGG | -0.0459 |
| ACGTATTC | 0.119 |
| CACGCGGG | -0.124 |
| CGAGGCTC | 0.207 |
| CTAGCGGA | -0.14 |
| GTAAACCA | 0.0531 |
| ATTCGTAG | 0.285 |
| CTCCCCAC | -0.182 |
| AGTAATGC | -0.142 |
| AACCGAGA | 0.285 |
| ATCCTCTA | -0.167 |
| GGTAAGAA | -0.0315 |
| ATTTTCAG | -0.0121 |
| TCGACAAA | 0.174 |
| GCTAGCCC | -0.317 |
| AGGAGACC | -0.223 |
| CGTGTGCC | -0.175 |
| GCAGCCCC | -0.00473 |
| ATGGCGCG | -0.133 |
| CCGTGCGC | -0.0286 |
| AACGTCGG | 0.176 |
| ATAGCTTA | -0.0835 |
